Counter-ions that a name gives are not always drawn. Activity calls are given as the source filed them. No stated cut-off is given here; in the data, actives have a measured EC50 and inactives only a lower limit.
Assay: HPDE-C7 pancreatic duct cell viability loss – fluorescence, HTS (AID 430)
Format: functional, cell-based
Conditions: Homo sapiens

CCCCc1oc2ccccc2c1C(=O)c1cc(I)c(OCCN(CC)CC)c(I)c1 [AMIODARONE HYDROCHLORIDE]
EC50: active: 6.53 µM
